The record followed here is PubChem BioAssay AID488969 (Vanderbilt High Throughput Screening Facility, 2010).

The full ranking holds about 110,000 compounds; the median of “z-score” is about -0.1, and the highest 2% start at about 2. The list shows a part of the results. The source made the active and inactive calls.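 How the source made its calls: active means z-score in the third read window above 3 or below -3; inactive means the rest.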

This assay deals with Metabotropic glutamate receptor 8 (Rattus norvegicus) (UniProt P70579). As to the kind of experiment: rat mGluR8 modulators via GIRK flux, primary screen, cell-based, thallium flux, HTS (AID 488969). To be noted: HEK293 rat mGluR8, GIRK (G protein-gated inwardly rectifying potassium channel) thallium flux, FluoZin2; at 10 µM; stronger effect = higher value; submaximal glutamate (EC20) added with thallium.
UniProt P70579, sequence (P70579 whole entry, looked up): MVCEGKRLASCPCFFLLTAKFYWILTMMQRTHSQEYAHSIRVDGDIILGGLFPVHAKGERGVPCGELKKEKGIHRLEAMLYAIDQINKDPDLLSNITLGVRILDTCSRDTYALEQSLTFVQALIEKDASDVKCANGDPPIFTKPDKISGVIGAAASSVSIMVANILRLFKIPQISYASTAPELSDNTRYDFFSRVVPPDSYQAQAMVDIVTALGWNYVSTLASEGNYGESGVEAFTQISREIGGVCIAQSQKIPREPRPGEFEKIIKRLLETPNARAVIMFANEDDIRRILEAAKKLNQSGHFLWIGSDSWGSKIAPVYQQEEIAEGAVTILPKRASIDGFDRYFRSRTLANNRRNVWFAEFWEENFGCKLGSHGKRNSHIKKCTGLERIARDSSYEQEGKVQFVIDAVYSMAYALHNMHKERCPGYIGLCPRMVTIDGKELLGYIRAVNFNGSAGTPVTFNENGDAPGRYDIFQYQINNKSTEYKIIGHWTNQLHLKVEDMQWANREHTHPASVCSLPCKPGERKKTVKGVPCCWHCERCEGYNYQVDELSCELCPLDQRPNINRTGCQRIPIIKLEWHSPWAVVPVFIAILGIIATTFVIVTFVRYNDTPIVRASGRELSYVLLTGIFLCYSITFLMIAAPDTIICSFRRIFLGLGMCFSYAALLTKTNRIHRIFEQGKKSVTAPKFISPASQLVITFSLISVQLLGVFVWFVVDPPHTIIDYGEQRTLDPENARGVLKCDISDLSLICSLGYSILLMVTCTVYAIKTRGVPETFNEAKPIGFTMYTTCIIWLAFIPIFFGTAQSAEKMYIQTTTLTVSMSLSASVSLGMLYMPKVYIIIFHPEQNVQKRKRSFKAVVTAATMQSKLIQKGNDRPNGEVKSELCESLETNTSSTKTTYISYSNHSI
`CCOC(=O)c1sc(NC(=O)C(CC)OC(=O)C(CC(C)C)NC(=O)c2ccccc2)nc1C` (configuration not stated) had a z-score of -0.142.

`Cc1noc(C)c1COc1ccc(C(=O)OCC(=O)N2CC(=O)Nc3ccccc32)cc1`: the z-score was -0.373.

As to `CC(=O)N=C1SC2CS(=O)(=O)CC2N1c1cccc(Cl)c1Cl` (configuration not stated), the z-score is -0.0248.

`Cc1nc2ccccc2n1C1CCN(CC(=O)NCc2ccc(F)cc2)CC1` showed a z-score of 0.185.

For `O=C(CN1CCCCCC1)N1c2ccccc2C=Cc2ccccc21`, the z-score came to 0.816.

`Cc1ccc(S(=O)(=O)N2CCN(S(=O)(=O)N3CCCCC3)CC2)cc1` had a z-score of -0.495.

For `Cc1ccc(NC(=O)Nc2ccc(F)cc2)nc1`, the z-score is -0.00242.

Compound `Cc1ccc(OCc2nnc(NC(=O)Cc3cccs3)s2)cc1` returned a z-score of 0.179.

In turn, `CCOC(=O)NC1(C(F)(F)F)C(=O)NC(C)=C1C(=O)OC` (configuration not stated) gave a z-score of -0.362.

`Cc1cc(C(=O)COC(=O)CNC(=O)c2ccc(Cl)c(Cl)c2)c(C)n1Cc1ccco1`: the z-score was found to be 0.295.

As for `CCOC(=O)C(NC(=O)Nc1ccc(Cl)cn1)(Oc1ccccc1)C(F)(F)F` (configuration not stated), the z-score was -0.558.

`COc1ccc(CCNC(=O)c2cc(=O)[nH]c3ccc(Br)cc23)cc1OC`: the z-score amounted to 0.0589.

In the case of `N#C/C(=C\c1ccc(/C=C(/C#N)c2nn(CCO)c(N)c2C#N)cc1)c1nn(CCO)c(N)c1C#N`, the z-score was 0.333.

`O=C(O)/C(=C\c1ccco1)NC(=O)c1cccc2ccccc12` gave a z-score of 0.155.

`CCCc1cc2c(=O)n(NC(=O)c3nn(C)cc3[N+](=O)[O-])c(C)nc2s1` registered a z-score of -0.136.

`CCN(CC)S(=O)(=O)c1cc([N+](=O)[O-])ccc1NNC(=O)Nc1ccc(F)cc1`: the z-score was 0.544.

With `Cn1cnnc1SC1CCCCC1NS(=O)(=O)c1ccccc1` (configuration not stated), the z-score stood at 0.0963.

Compound `NC(=O)C1(N2CCCCC2)CCN(C(=O)c2ccc(C#Cc3ccccc3)o2)CC1` showed a z-score of -0.104.

Turning to `Cc1csc(C(C#N)C(=O)c2ccc(S(=O)(=O)N3CCCC3)cc2)n1` (configuration not stated), the z-score amounted to 0.626.

`N/C(=N\OC(=O)CCc1ccccc1)c1ccc(Cl)cc1`: the z-score is -0.162.

Compound `COc1ccccc1C(=O)NCCCN1CCCC1=O` returned a z-score of -0.389.

`C=CCOc1c(Br)cc(/C=N/n2c(CC)n[nH]c2=S)cc1Br` registered a z-score of 0.318.

Compound `CCOc1ccc(N2CC(C(=O)Nc3ccc(N4CCOCC4)cc3)CC2=O)cc1` (configuration not stated) displayed a z-score of -0.107.

`Cc1cc(NC(=O)/C=C/c2ccccc2Cl)no1` came in with a z-score of -0.166.

With `CCOc1cc(C(=O)N(C)Cc2cc3ccccc3[nH]c2=O)cc(OCC)c1OCC`, the z-score was -0.244.

Take `O=S(=O)(N1CCCCC1)N1CCNCC1`: the z-score was -0.187.

`CCC1(C(=O)OC)NC(c2ccco2)C2C(=O)N(c3ccc(C)cc3)C(=O)C21` (configuration not stated): the z-score is -0.259.

In the case of `CC1CCc2ccc(F)cc2N1S(=O)(=O)c1cccs1` (configuration not stated), the z-score is -0.186.

Compound `O=[n+]1cc(-c2ccccc2)n([O-])c2c1CCCCC2` yielded a z-score of 0.164.

`O=C(CSc1nnc(-c2ccncc2)o1)NCc1ccccc1` had a z-score of -0.00508.

`O=C(/C=C/c1cc([N+](=O)[O-])ccc1OC(F)F)Nc1cccc2ccccc12`: the z-score amounted to 0.12.

Compound `O=S(=O)(c1cccc2nsnc12)N1CCc2ccccc21` registered a z-score of -0.286.

In turn, `COc1ccc(-c2nc3ccccn3c2NCc2ccc3c(c2)OCO3)cc1` had a z-score of -1.02.

In the case of `O=C(COC(=O)COc1cccc(Br)c1)Nc1c(Cl)cccc1Cl`, the z-score is -0.328.

Compound `O=C1CCCC2=C1C(c1cn(-c3ccccc3)nc1-c1cccs1)c1c([nH]c(=O)[nH]c1=O)N2` (configuration not stated) yielded a z-score of -0.397.

As to `CCOc1ccc(C(=O)C2CCN(CC(=O)Nc3ccccc3N3CCOCC3)CC2)cc1`, the z-score is -0.217.

As to `O=C(/C=C/Nc1cccc(C(F)(F)F)c1)c1ccc(Oc2ncccn2)cc1`, the z-score is -0.244.

`COC(=O)c1cnn(-c2nc(OC)cc(OC)n2)c1C` displayed a z-score of -0.0792.

`CCOC(=O)C(C(=O)OCC)C(CC(=O)C1CC1)c1ccccc1` (configuration not stated) gave a z-score of -0.144.

`COc1ccc(NC(=O)CN2CCN(c3ccccc3F)CC2)cc1` returned a z-score of -0.481.

Turning to `CCNc1nc(NCC)n2c(SCc3nc4ccccc4c(=O)[nH]3)nnc2n1`, the z-score is -0.275.

`CCNC(=O)CN1C(=O)NC2(CCCc3cc(OC)ccc32)C1=O` (configuration not stated) came in with a z-score of 0.037.

For the compound `O=C1CC(c2ccc(F)cc2)SC(N(c2ccccc2)c2ccccc2)=N1` (configuration not stated), the z-score came out at 0.228.

`COC(=O)c1cc(NC2c3ccccc3C(=O)N2Cc2ccco2)cc(C(=O)OC)c1` (configuration not stated): the z-score is 0.42.

Compound `O=C(NC(CSCc1ccccc1)C(=O)N/N=C/c1ccc(O)cc1O)c1ccc([N+](=O)[O-])cc1` (configuration not stated) returned a z-score of -0.454.

The compound `Cc1cccc(C(CC(=O)O)n2cccc2)c1` (configuration not stated) showed a z-score of -0.29.

`CC(=O)c1c(C)[nH]c(C(=O)OCc2ccccc2)c1C`: the z-score is -0.337.

Consider `O=C(CCN1c2ccccc2Sc2ccccc21)OCC(=O)N1CCN(C(=O)c2ccco2)CC1`, for which the z-score worked out at 0.364.

For the compound `COC(=O)c1cn[nH]c1NC(=S)Nc1ccc(Cl)c(Cl)c1`, the z-score is -0.0115.

The compound `O=C(CC12CCC(CC1)C2)NCc1ccc2c(c1)OCO2` gave a z-score of -0.246.

As to `O=C(CSc1nccn1-c1ccccc1)NCc1ccc2c(c1)OCO2`, the z-score is -0.394.

In turn, `Cc1ccc(S(=O)(=O)N2CCSC2)cc1C` returned a z-score of -0.248.

The compound `Cc1cccc(-n2c(Cn3nc(C)c([N+](=O)[O-])c3C)n[nH]c2=S)c1` came in with a z-score of 0.621.

In turn, `CC(=O)/C(=N\Nc1ccccc1Cl)Sc1cccc2cccnc12` showed a z-score of 0.299.

Turning to `Clc1ccc(-c2ccnc(Oc3ccc4ccccc4c3)n2)cc1`, the z-score turned out to be 0.148.

Compound `O=C(COc1ccc2c(c1)C(=O)CC1(CCCCC1)O2)NCc1ccccn1` came in with a z-score of -0.0332.

With `O=C(NCc1ccco1)C1CCN(c2ccc(N3CCOCC3)nn2)CC1`, the z-score stood at 0.321.

Compound `CCc1nnc(NC(=O)CN2CCN(c3ccccc3OC)CC2)s1` had a z-score of -0.0727.

Regarding `O=C(Nc1ccc(Oc2ccccc2)cc1)C1CCN(c2c3c(nc4ncnn24)CCC3)CC1`, the z-score is -0.406.

`CCOC(=O)C1CCCCN1C(=O)CCc1c(C)nc2cc(-c3ccccc3)nn2c1C` (configuration not stated): the z-score was -0.526.

`CCOC(=O)N1CCN(C(=S)Nc2ccc3nc(N4CCN(CC)CC4)cc(C)c3c2)CC1`: the z-score was determined as 0.896.

As for `O=Cc1cn(CC(=O)NCC2CCCO2)c2ccccc12` (configuration not stated), the z-score was -0.103.

Consider `CCN(CCNC(=O)C1CCN(S(=O)(=O)CC)CC1)c1ccccc1`, for which the z-score was -0.121.

As to `O=C(N/N=C/c1cc2c(cc1[N+](=O)[O-])OCO2)c1ccccn1`, the z-score was -0.173.

For the compound `Cc1noc(NS(=O)(=O)c2ccc(NC(=O)CC34CC5CC(CC(Br)(C5)C3)C4)cc2)c1C`, the z-score stood at 0.138.

Compound `Cc1cccc(C(=O)Nc2sc(C(=O)N3CCCC3)c(C)c2C#N)c1` registered a z-score of 0.227.

For `NC(=O)C1CCN(C(=O)Nc2ccccc2)CC1`, the z-score was -0.167.

Consider `CC(C)n1c(-c2ccc(C(C)(C)C)cc2)n[nH]c1=S`, for which the z-score is active: 8.21.

On to `COc1ccccc1NC(=O)C1CC(=O)N(c2ccc(F)cc2)C1` (configuration not stated), for which the z-score was -0.682.

The compound `COC(=O)c1ccc(C)c(NC(=O)c2nn(C)c(=O)c3ccccc23)c1` displayed a z-score of -0.621.

As for `CCOC(=O)C1=C(C)N(C)C(=S)NC1c1ccccc1Cl` (configuration not stated), the z-score was -0.143.

On to `COc1ccccc1CNC(=O)CCN1C(=O)COc2ccccc21`, for which the z-score is -0.13.

Take `O=C(O)c1cc(=O)c2cc(Cl)ccc2o1`: the z-score was -0.147.

`Cn1c(N)c(C(=O)c2ccc(F)cc2F)c(=O)n(C)c1=O`: the z-score is 0.167.

`O=C(CCCOc1ccccc1)NCc1ccco1` displayed a z-score of -0.205.

For the compound `O=C(CSc1nncn1-c1ccccc1)Nc1cc(Cl)cc(Cl)c1`, the z-score was -0.24.

On to `COc1ccc(CCC(=O)Nc2ccc(C)c([N+](=O)[O-])c2)cc1`, for which the z-score was -0.401.

As for `Cc1ccc(-n2c(=O)[nH]cc(C(=O)N3CCc4ccccc43)c2=O)cc1C`, the z-score amounted to 0.0922.

Consider `CCOC(=O)N1CCC(NC(=O)C2CCN(S(=O)(=O)c3c(C)noc3C)CC2)CC1`, for which the z-score is -0.144.

`CC(C)COC(=O)Nc1ccc(C(=O)O)cc1` displayed a z-score of 0.11.

The compound `O=C(CC1Oc2ccccc2NC1=O)NCc1ccc(Cl)cc1` (configuration not stated) showed a z-score of -0.15.

As for `CC(/C=N/NC(=O)c1cc(-c2ccc(Cl)cc2)nc2ccccc12)=C\c1ccco1`, the z-score was 0.0726.

Take `CC(=O)N1C(=O)C2(C(C#N)=C(N)Oc3cc(C)oc(=O)c32)c2ccccc21` (configuration not stated): the z-score is 0.149.

Compound `COc1ccc(C2C(C(C)=O)=C(C)N=c3s/c(=C\c4ccc5c(c4)OCO5)c(=O)n32)c(OC)c1` (configuration not stated) gave a z-score of -0.201.

In the case of `CC1CCCN(C(=O)CN2CCN(C(=O)c3ccco3)CC2)C1` (configuration not stated), the z-score amounted to 0.124.

For the compound `O=C(CSc1nnc(-c2ccco2)o1)N1c2ccccc2CCc2ccccc21`, the z-score was -0.287.

Consider `CC(C)COC(=O)Nc1nnc(SCCOc2ccccc2)s1`, for which the z-score was -0.414.

Take `CCCOc1ccc(C(=O)NNC(=S)NC(=O)c2cc(-c3ccc(Cl)cc3)nc3ccccc23)cc1`: the z-score was -0.0891.

For the compound `CCOc1ccc(S(=O)(=O)Nc2ccccc2SC)cc1`, the z-score was determined as 0.251.

As for `O=C(N/N=C/c1cn(-c2ccccc2)nc1-c1cc2ccccc2o1)c1cccnc1`, the z-score amounted to 0.0945.

The compound `O=S(=O)(c1ccccc1Cl)N1CCC(O)(c2ccc3c(c2)OCO3)CC1` yielded a z-score of 0.206.

Take `O=C(O)CCn1[nH]c(=O)ccc1=O`: the z-score is -0.273.

In the case of `COC(=O)c1nc2n(n1)C(c1ccc([N+](=O)[O-])cc1)C(C(=O)Nc1ccc(Cl)cc1)=C(C)N2` (configuration not stated), the z-score was 0.221.

Take `O=C(CCCn1c(=O)[nH]c2ccsc2c1=O)N1CCN(Cc2ccc3c(c2)OCO3)CC1`: the z-score was 0.38.

For the compound `OC(COCc1ccccc1)CN1CCN(c2ccccc2F)CC1` (configuration not stated), the z-score was 0.0548.

`CCOc1[nH]n(-c2ccc(Cl)cc2)c(=O)c1C=Nc1ccc(OC)cc1` returned a z-score of 0.95.

Compound `O=C(NCc1ccncc1)C1COc2ccccc2O1` (configuration not stated) yielded a z-score of -0.276.

In turn, `Cc1noc(C(=O)Nc2ccc3c(c2)OCO3)c1Cl` showed a z-score of -0.183.

The compound `CCOC(=O)CCCNC(=O)CN1C(=O)NC2(CCCCCC2)C1=O` yielded a z-score of 0.819.

`COC(=O)c1ccc(OC(=O)c2ccccc2F)cc1` had a z-score of 0.198.

`CSc1nnc(-c2ccco2)c(-c2ccco2)n1` returned a z-score of -1.36.

With `O=[N+]([O-])c1ccc(C2CCCC/C2=N/OCc2ccc(F)cc2)c([N+](=O)[O-])c1` (configuration not stated), the z-score was -0.208.

Regarding `COc1ccc(NC(=O)CCc2nc(-c3ccc(C)cc3)no2)cc1Cl`, the z-score came out at 0.344.

Consider `COCCCNC(=O)c1ccc([N+](=O)[O-])c(Cl)c1`, for which the z-score is -1.54.

For the compound `COc1cccc(C(=O)NNC(=O)c2ccccc2Br)c1`, the z-score was -0.445.

On to `CCOc1ccccc1NC(=O)CSc1nnnn1Cc1ccccc1`, for which the z-score was found to be 0.272.

In turn, `CC1CCN(S(=O)(=O)c2ccc3[nH]cc(C(=O)NCCN4CCOCC4)c(=O)c3c2)CC1` came in with a z-score of -0.272.
